# Measured values taken from the supplement of paper PMC8728848.
# This is one part of the list.
# How the values were obtained:
# Test in all cases: glycan array binding signal (z-score within array); higher = stronger binding
# Settings in all cases: glycan notation: IUPAC condensed, linker removed
# [1] = biological target: Fuc(a1-2)[GalNAc(a1-3)]Gal(b1-3)GlcNAc(b1-2)Man(a1-3)[Fuc(a1-2)[GalNAc(a1-3)]Gal(b1-3)GlcNAc(b1-2)Man(a1-6)]Man(b1-4)GlcNAc(b1-4)[Fuc(a1-6)]GlcNAc
# Summary of the method: (§1)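 Glycan array data came from 3228 arrays in the Consortium for Functional Glycomics database, and only arrays with an available protein sequence were kept. Glycan names were put into IUPAC-condensed notation, and columns mapping to the same glycan were averaged. The binding signal is a within-array Z-score, averaged across arrays of one protein sequence run at different concentrations or buffers and across linkers. A negative Z-score can be read as non-binding.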
# [2] = biological target: Fuc(a1-2)[GalNAc(a1-3)]Gal(b1-3)GlcNAc(b1-3)GalNAc
# Summary of the method: as §1
# [3] = biological target: Fuc(a1-2)[GalNAc(a1-3)]Gal(b1-3)GlcNAc(b1-6)GalNAc
# Summary of the method: as §1
# [4] = biological target: Fuc(a1-2)[GalNAc(a1-3)]Gal(b1-4)Glc
# Summary of the method: as §1
# [5] = biological target: Fuc(a1-2)[GalNAc(a1-3)]Gal(b1-4)GlcNAc
# Summary of the method: as §1
# [6] = biological target: Fuc(a1-2)[GalNAc(a1-3)]Gal(b1-4)GlcNAc(b1-2)Man
# Summary of the method: as §1
# [7] = biological target: Fuc(a1-2)[GalNAc(a1-3)]Gal(b1-4)GlcNAc(b1-2)Man(a1-3)[Fuc(a1-2)[GalNAc(a1-3)]Gal(b1-4)GlcNAc(b1-2)Man(a1-6)]Man(b1-4)GlcNAc(b1-4)GlcNAc
# Summary of the method: as §1
# [8] = biological target: Fuc(a1-2)[GalNAc(a1-3)]Gal(b1-4)GlcNAc(b1-2)Man(a1-3)[Fuc(a1-2)[GalNAc(a1-3)]Gal(b1-4)GlcNAc(b1-2)Man(a1-6)]Man(b1-4)GlcNAc(b1-4)[Fuc(a1-6)]GlcNAc
# Summary of the method: as §1
# [9] = biological target: Fuc(a1-2)[GalNAc(a1-3)]Gal(b1-4)GlcNAc(b1-3)Gal(b1-4)GlcNAc
# Summary of the method: as §1
# [10] = biological target: Fuc(a1-2)[GalNAc(a1-3)]Gal(b1-4)GlcNAc(b1-3)Gal(b1-4)GlcNAc(b1-3)Gal(b1-4)GlcNAc
# Summary of the method: as §1
# [11] = biological target: Fuc(a1-2)[GalNAc(a1-3)]Gal(b1-4)GlcNAc(b1-3)GalNAc
# Summary of the method: as §1
# [12] = biological target: Fuc(a1-2)[GalNAc(a1-3)]Gal(b1-4)GlcNAc(b1-3)[Fuc(a1-2)[GalNAc(a1-3)]Gal(b1-4)GlcNAc(b1-6)]GalNAc
# Summary of the method: as §1
# [13] = biological target: Fuc(a1-2)[GalNAc(a1-3)]Gal(b1-4)GlcNAc(b1-6)GalNAc
# Summary of the method: as §1
# [14] = biological target: Fuc(a1-2)[GalNAc(a1-3)]Gal(b1-4)[Fuc(a1-3)]GlcNAc
# Summary of the method: as §1
# [15] = biological target: Fuc(a1-2)[GalNAc(a1-3)]Gal(b1-4)[Fuc(a1-3)]GlcNAc(b1-3)GalNAc
# Summary of the method: as §1
# [16] = biological target: Fuc(a1-2)[GalNAc(a1-4)]Gal(b1-4)GlcNAc
# Summary of the method: as §1
# [17] = biological target: Fuc(a1-2)[GalNAc(b1-3)]Gal
# Summary of the method: as §1
# Fuc(a1-3)GlcNAc = biological target: Fuc(a1-3)GlcNAc
# Summary of the method: as §1
# [18] = biological target: Fuc(a1-3)[Gal(b1-4)]Glc6S
# Summary of the method: as §1
# [19] = biological target: Fuc(a1-3)[Gal(b1-4)]GlcNAc
# Summary of the method: as §1
# [20] = biological target: Fuc(a1-3)[Gal(b1-4)]GlcNAc(b1-2)Man
# Summary of the method: as §1
# [21] = biological target: Fuc(a1-3)[Gal(b1-4)]GlcNAc(b1-2)Man(a1-3)[Fuc(a1-3)[Gal(b1-4)]GlcNAc(b1-2)Man(a1-6)]Man(b1-4)GlcNAc(b1-4)GlcNAc
# Summary of the method: as §1
# [22] = biological target: Fuc(a1-3)[Gal(b1-4)]GlcNAc(b1-2)Man(a1-3)[Fuc(a1-3)[Gal(b1-4)]GlcNAc(b1-2)Man(a1-6)]Man(b1-4)GlcNAc(b1-4)[Fuc(a1-6)]GlcNAc
# Summary of the method: as §1
# [23] = biological target: Fuc(a1-3)[Gal(b1-4)]GlcNAc(b1-3)Gal(b1-3)[Fuc(a1-4)]GlcNAc
# Summary of the method: as §1
# [24] = biological target: Fuc(a1-3)[Gal(b1-4)]GlcNAc(b1-3)Gal(b1-4)[Fuc(a1-3)]GlcNAc
# Summary of the method: as §1
# [25] = biological target: Fuc(a1-3)[Gal(b1-4)]GlcNAc(b1-3)Gal(b1-4)[Fuc(a1-3)]GlcNAc(b1-3)Gal(b1-4)[Fuc(a1-3)]GlcNAc
# Summary of the method: as §1
# [26] = biological target: Fuc(a1-3)[Gal(b1-4)]GlcNAc(b1-3)GalNAc
# Summary of the method: as §1
# [27] = biological target: Fuc(a1-3)[Gal(b1-4)]GlcNAc(b1-4)Gal(b1-4)[Fuc(a1-3)]GlcNAc
# Summary of the method: as §1
# [28] = biological target: Fuc(a1-3)[Gal(b1-4)]GlcNAc(b1-4)Gal(b1-4)[Fuc(a1-3)]GlcNAc(b1-4)Gal(b1-4)[Fuc(a1-3)]GlcNAc
# Summary of the method: as §1
# [29] = biological target: Fuc(a1-3)[Gal(b1-4)]GlcNAc(b1-6)GalNAc
# Summary of the method: as §1
# [30] = biological target: Fuc(a1-3)[Gal(b1-4)]GlcNAc(b1-6)[Gal(b1-3)GlcNAc(b1-3)]Gal(b1-4)Glc
# Summary of the method: as §1
# [31] = biological target: Fuc(a1-3)[Gal(b1-4)]GlcNAc6S
# Summary of the method: as §1
# [32] = biological target: Fuc(a1-3)[Gal3S(b1-4)]Glc
# Summary of the method: as §1
# [33] = biological target: Fuc(a1-3)[Gal3S(b1-4)]GlcNAc
# Summary of the method: as §1
# [34] = biological target: Fuc(a1-3)[Gal3S(b1-4)]GlcNAc6S
# Summary of the method: as §1
# [35] = biological target: Fuc(a1-3)[GalNAc(b1-4)]GlcNAc
# Summary of the method: as §1
# [36] = biological target: Fuc(a1-3)[GalNAc(b1-4)]GlcNAc6S
# Summary of the method: as §1
binder,measurement,setting,value
"LCA (Lens culinaris), P02870 (protein) MASLQTQMISFYLIFLSILLTTIFFFKVNSTETTSFSITKFSPDQKNLIFQGDGYTTKGKLTLTKAVKSTVGRALYSTPIHIWDRDTGNVANFVTSFTFVIDAPSSYNVADEFTFFIAPVDTKPQTGGGYLGVFNSKEYDKTSQTVAVEFDTFYNAAWDPSNKERHIGIDVNSIKSVNTKSWNLQNGERANVVIAFNAATNVLTVTLTYPNSLEEENVTSYTLNEVVPLKDVVPEWVRIGFSATTGAEFAAHEVHSWSFHSELGGTSSSKQAADA",glycan array binding signal (z-score),[1],0.539
same,glycan array binding signal (z-score),[2],-0.179
same,glycan array binding signal (z-score),[3],-0.268
same,glycan array binding signal (z-score),[4],-0.232
same,glycan array binding signal (z-score),[5],-0.215
same,glycan array binding signal (z-score),[6],-0.205
same,glycan array binding signal (z-score),[7],-0.228
same,glycan array binding signal (z-score),[8],0.305
same,glycan array binding signal (z-score),[9],-0.225
same,glycan array binding signal (z-score),[10],-0.048
same,glycan array binding signal (z-score),[11],-0.205
same,glycan array binding signal (z-score),[12],-0.236
same,glycan array binding signal (z-score),[13],-0.253
same,glycan array binding signal (z-score),[14],-0.095
same,glycan array binding signal (z-score),[15],-0.132
same,glycan array binding signal (z-score),[16],-0.22
same,glycan array binding signal (z-score),[17],-0.257
same,glycan array binding signal (z-score),Fuc(a1-3)GlcNAc,-0.186
same,glycan array binding signal (z-score),[18],-0.182
same,glycan array binding signal (z-score),[19],-0.209
same,glycan array binding signal (z-score),[20],-0.24
same,glycan array binding signal (z-score),[21],-0.237
same,glycan array binding signal (z-score),[22],-0.245
same,glycan array binding signal (z-score),[23],-0.164
same,glycan array binding signal (z-score),[24],-0.17
same,glycan array binding signal (z-score),[25],-0.236
same,glycan array binding signal (z-score),[26],-0.185
same,glycan array binding signal (z-score),[27],-0.205
same,glycan array binding signal (z-score),[28],-0.222
same,glycan array binding signal (z-score),[29],-0.194
same,glycan array binding signal (z-score),[30],-0.233
same,glycan array binding signal (z-score),[31],-0.21
same,glycan array binding signal (z-score),[32],-0.229
same,glycan array binding signal (z-score),[33],-0.201
same,glycan array binding signal (z-score),[34],-0.197
same,glycan array binding signal (z-score),[35],-0.176
same,glycan array binding signal (z-score),[36],-0.185
